# Test results: US20160378909A1, “PROCESS FOR IDENTIFYING CULTURE CONDITIONS FOR A CELL OR ORGANISM” (GLAXOSMITHKLINE BIOLOGICALS SA, priority 2013, published 2016)
# Read-outs that look alike come from different tables or passages of the source. At least one read-out could not be matched to a standard name with certainty. Some results were stated once for a whole list of compounds, not compound by compound. At least one structure is not confirmed: it was looked up by name or label, or the drawing left a doubt.
# Test system: Bordetella pertussis
# Assay type: cell-based
# Conditions: for Relative growth rate Average: first generation, relative to water controls; for Relative yield Average: max OD650 nm relative to water controls
# Experimental: Cells were harvested by centrifugation, washed twice with NaCl 0.9% (w/v), and resuspended in fresh medium (de novo minimal CDM; see composition in Table 1) at a theoretical OD650 nm of 0.5, as calculated from the OD650 nm of the culture before harvest. 20 μl of this cell suspension were used to inoculate each well of a 96-well microtiter plate filled with 180 μl of de novo minimal CDM. Only the inner wells of the plate were used for cultures, in order to minimize evaporation, and two controls were included, in which the supplement solution was replaced with water.
# The plate was then incubated for 7 days at 35° C. in a Biotek Synergy H1 reader with constant shaking, and growth was automatically monitored every 10 minutes as OD650 nm.
# The relative growth yield and growth rate for each supplement was then averaged over the three independent repeats, and the standard deviation was calculated.
# [1] = 20 mM in medium, listed as sodium DL-beta-hydroxybutyrate
# [2] = 3 mM in medium, listed as CaCl2.2H2O
# [3] = 20 mM in medium, listed as L-alanine
# [4] = 13.3 mM in medium, listed as L-leucine
# [5] = 20 mM in medium, listed as L-lysine, HCl
# [6] = 13.3 mM in medium, listed as L-phenylalanine
# [7] = 20 mM in medium, listed as L-valine
smiles,measurement,setting,value
CC(O)CC(=O)[O-].[Na+] (racemic) [Sodium DL-beta-hydroxybutyrate],Relative growth rate Average,[1],less than 95.00%
same,Relative yield Average,[1],greater than 105.00%
Nc1ncnc2nc[nH]c12 [Adenine],Relative growth rate Average,0.1 mg/L in medium,101.63%
same,Relative yield Average,0.1 mg/L in medium,102.64%
same,Relative growth rate Average,1 mg/L in medium,98.65%
same,Relative yield Average,1 mg/L in medium,100.86%
O=C(O)CCCC[C@@H]1SC[C@@H]2NC(=O)N[C@@H]21 [Biotin],Relative growth rate Average,0.02 mg/L in medium,107.48%
same,Relative yield Average,0.02 mg/L in medium,130.04%
same,Relative yield Average,"0.02 mg/L in medium, listed as biotin",greater than 105.00%
same,Relative growth rate Average,0.2 mg/L in medium,104.86%
same,Relative yield Average,0.2 mg/L in medium,125.70%
same,Relative yield Average,"0.2 mg/L in medium, listed as biotin",greater than 105.00%
O.O.[Ca+2].[Cl-].[Cl-] [CaCl2•2H2O],Relative growth rate Average,"0.3 mM in medium, listed as CaCl2.2H2O",greater than 105.00%
same,Relative growth rate Average,[2],less than 95.00%
same,Relative yield Average,[2],greater than 105.00%
Nc1nc(=O)c2nc(CNc3ccc(C(=O)N[C@@H](CCC(=O)O)C(=O)O)cc3)cnc2[nH]1 [Folate],Relative growth rate Average,0.12 mg/L in medium,101.07%
same,Relative yield Average,0.12 mg/L in medium,106.78%
same,Relative growth rate Average,1.2 mg/L in medium,102.82%
same,Relative yield Average,1.2 mg/L in medium,97.10%
OCC(O)CO [Glycerol],Relative growth rate Average,2 mM in medium,102.01%
same,Relative yield Average,2 mM in medium,99.99%
same,Relative growth rate Average,20 mM in medium,91.05%
same,Relative yield Average,20 mM in medium,106.51%
Nc1nc2nc[nH]c2c(=O)[nH]1 [Guanine],Relative growth rate Average,0.1 mg/L in medium,100.98%
same,Relative yield Average,0.1 mg/L in medium,101.37%
same,Relative growth rate Average,1 mg/L in medium,100.00%
same,Relative yield Average,1 mg/L in medium,96.53%
O[C@H]1[C@H](O)[C@@H](O)[C@H](O)[C@@H](O)[C@H]1O [Inositol],Relative growth rate Average,2.8 mg/L in medium,101.49%
same,Relative yield Average,2.8 mg/L in medium,101.81%
same,Relative growth rate Average,28 mg/L in medium,101.59%
same,Relative yield Average,28 mg/L in medium,103.44%
C[C@H](N)C(=O)O [L-Alanine],Relative growth rate Average,2 mM in medium,122.83%
same,Relative yield Average,2 mM in medium,97.37%
same,Relative growth rate Average,20 mM in medium,125.31%
same,Relative growth rate Average,[3],greater than 105.00%
same,Relative yield Average,20 mM in medium,131.45%
same,Relative yield Average,[3],greater than 105.00%
N=C(N)NCCC[C@H](N)C(=O)O [L-Arginine],Relative growth rate Average,2 mM in medium,110.44%
same,Relative yield Average,2 mM in medium,114.18%
same,Relative growth rate Average,20 mM in medium,121.60%
same,Relative yield Average,20 mM in medium,156.96%
same,Relative yield Average,"20 mM in medium, listed as L-arginine",greater than 105.00%
NC(=O)C[C@H](N)C(=O)O [L-Asparagine],Relative growth rate Average,1.33 mM in medium,100.61%
same,Relative yield Average,1.33 mM in medium,97.99%
same,Relative growth rate Average,13.3 mM in medium,99.03%
same,Relative yield Average,13.3 mM in medium,90.71%
NC(=O)CC[C@H](N)C(=O)O [L-Glutamine],Relative growth rate Average,2 mM in medium,104.98%
same,Relative yield Average,2 mM in medium,99.74%
same,Relative growth rate Average,20 mM in medium,86.26%
same,Relative yield Average,20 mM in medium,108.62%
N[C@@H](Cc1c[nH]cn1)C(=O)O [L-Histidine],Relative growth rate Average,2 mM in medium,107.62%
same,Relative yield Average,2 mM in medium,98.94%
same,Relative growth rate Average,20 mM in medium,111.15%
same,Relative yield Average,20 mM in medium,89.79%
CC[C@H](C)[C@H](N)C(=O)O [L-Isoleucine],Relative growth rate Average,2 mM in medium,91.63%
same,Relative yield Average,2 mM in medium,94.37%
same,Relative growth rate Average,20 mM in medium,52.79%
same,Relative growth rate Average,"20 mM in medium, listed as L-isoleucine",less than 95.00%
same,Relative yield Average,20 mM in medium,81.62%
CC(C)C[C@H](N)C(=O)O [L-Leucine],Relative growth rate Average,1.33 mM in medium,101.04%
same,Relative yield Average,1.33 mM in medium,100.87%
same,Relative growth rate Average,13.3 mM in medium,57.00%
same,Relative growth rate Average,[4],less than 95.00%
same,Relative yield Average,13.3 mM in medium,140.45%
same,Relative yield Average,[4],greater than 105.00%
Cl.NCCCC[C@H](N)C(=O)O [L-Lysine HCl],Relative growth rate Average,"2 mM in medium, HCl",88.93%
same,Relative yield Average,"2 mM in medium, HCl",108.70%
same,Relative growth rate Average,"20 mM in medium, HCl",25.87%
same,Relative growth rate Average,[5],less than 95.00%
same,Relative yield Average,"20 mM in medium, HCl",16.31%
same,Relative yield Average,[5],less than 95.00%
N[C@@H](Cc1ccccc1)C(=O)O [L-Phenylalanine],Relative growth rate Average,1.33 mM in medium,76.48%
same,Relative yield Average,1.33 mM in medium,90.14%
same,Relative growth rate Average,13.3 mM in medium,25.87%
same,Relative growth rate Average,[6],less than 95.00%
same,Relative yield Average,13.3 mM in medium,22.78%
same,Relative yield Average,[6],less than 95.00%
N[C@@H](CO)C(=O)O [L-Serine],Relative growth rate Average,2 mM in medium,104.57%
same,Relative yield Average,2 mM in medium,86.25%
same,Relative growth rate Average,20 mM in medium,74.91%
same,Relative growth rate Average,"20 mM in medium, listed as L-serine",less than 95.00%
same,Relative yield Average,20 mM in medium,90.14%
C[C@@H](O)[C@H](N)C(=O)O [L-Threonine],Relative growth rate Average,2 mM in medium,87.00%
same,Relative yield Average,2 mM in medium,97.93%
same,Relative growth rate Average,20 mM in medium,62.85%
same,Relative growth rate Average,"20 mM in medium, listed as L-threonine",less than 95.00%
same,Relative yield Average,20 mM in medium,80.29%
N[C@@H](Cc1c[nH]c2ccccc12)C(=O)O [L-Tryptophane],Relative growth rate Average,0.518 mM in medium,98.48%
same,Relative yield Average,0.518 mM in medium,105.98%
same,Relative growth rate Average,5.18 mM in medium,65.57%
same,Relative growth rate Average,"5.18 mM in medium, listed as L-tryptophane",less than 95.00%
same,Relative yield Average,5.18 mM in medium,95.71%
N[C@@H](Cc1ccc(O)cc1)C(=O)O [L-Tyrosine],Relative growth rate Average,0.0221 mM in medium,97.58%
same,Relative yield Average,0.0221 mM in medium,96.91%
same,Relative growth rate Average,0.221 mM in medium,94.80%
same,Relative yield Average,0.221 mM in medium,96.52%
CC(C)[C@H](N)C(=O)O [L-Valine],Relative growth rate Average,2 mM in medium,76.42%
same,Relative yield Average,2 mM in medium,97.20%
same,Relative growth rate Average,20 mM in medium,26.79%
same,Relative growth rate Average,[7],less than 95.00%
same,Relative yield Average,20 mM in medium,29.05%
same,Relative yield Average,[7],less than 95.00%
[I-].[K+] [Potassium iodide],Relative growth rate Average,"0.47 mg/L in medium, listed as potassium iodide",less than 95.00%
Cc1ncc(CO)c(CO)c1O [Pyridoxine],Relative growth rate Average,0.2 mg/L in medium,101.19%
same,Relative yield Average,0.2 mg/L in medium,100.95%
same,Relative growth rate Average,2 mg/L in medium,101.12%
same,Relative yield Average,2 mg/L in medium,97.66%
Cc1cc2nc3c(=O)[nH]c(=O)nc-3n(C[C@H](O)[C@H](O)[C@H](O)CO)c2cc1C [Riboflavin],Relative growth rate Average,0.3 mg/L in medium,106.38%
same,Relative yield Average,0.3 mg/L in medium,98.12%
same,Relative growth rate Average,3 mg/L in medium,103.60%
same,Relative yield Average,3 mg/L in medium,97.90%
C[C@H](O)C(=O)[O-].[Na+] [Sodium L-Lactate],Relative growth rate Average,"5 mM in medium, listed as sodium L-lactate",greater than 105.00%
same,Relative yield Average,"50 mM in medium, listed as sodium L-lactate",greater than 105.00%
